# Data published in the supplement of paper PMC8728848.
# This is one part of the list.
# Assays:
# Assay in all cases: glycan array binding signal (z-score within array); higher = stronger binding
# Conditions in all cases: glycan notation: IUPAC condensed, linker removed
# [1] = target: Gal3S(b1-3)[Fuc(a1-4)]GlcNAc
# Procedure, shortened: (§1)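 Negative Z-scores can be read as non-binding. The Z-score is calculated within each array and then averaged across arrays of one protein sequence at different concentrations or buffers and across linkers. Arrays, 3228 in all, were curated from the Consortium for Functional Glycomics database and kept only where the protein sequence was available.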
# Gal3S(b1-4)Glc = target: Gal3S(b1-4)Glc
# Procedure, shortened: as §1
# Gal3S(b1-4)Glc6S = target: Gal3S(b1-4)Glc6S
# Procedure, shortened: as §1
# Gal3S(b1-4)GlcNAc = target: Gal3S(b1-4)GlcNAc
# Procedure, shortened: as §1
# Gal3S(b1-4)GlcNAc6S = target: Gal3S(b1-4)GlcNAc6S
# Procedure, shortened: as §1
# [2] = target: Gal3S(b1-4)[Fuc(a1-3)]Glc
# Procedure, shortened: as §1
# [3] = target: Gal3S(b1-4)[Fuc(a1-3)]Glc6S
# Procedure, shortened: as §1
# Gal3S4S(b1-4)GlcNAc = target: Gal3S4S(b1-4)GlcNAc
# Procedure, shortened: as §1
# Gal3S6S(b1-4)GlcNAc = target: Gal3S6S(b1-4)GlcNAc
# Procedure, shortened: as §1
# Gal3S6S(b1-4)GlcNAc6S = target: Gal3S6S(b1-4)GlcNAc6S
# Procedure, shortened: as §1
# Gal4S(b1-4)GlcNAc = target: Gal4S(b1-4)GlcNAc
# Procedure, shortened: as §1
# Gal4S6S(b1-4)GlcNAc = target: Gal4S6S(b1-4)GlcNAc
# Procedure, shortened: as §1
# Gal6S(b1-3)GlcNAc = target: Gal6S(b1-3)GlcNAc
# Procedure, shortened: as §1
# Gal6S(b1-3)GlcNAc6S = target: Gal6S(b1-3)GlcNAc6S
# Procedure, shortened: as §1
# Gal6S(b1-4)Glc = target: Gal6S(b1-4)Glc
# Procedure, shortened: as §1
# Gal6S(b1-4)Glc6S = target: Gal6S(b1-4)Glc6S
# Procedure, shortened: as §1
# Gal6S(b1-4)GlcNAc = target: Gal6S(b1-4)GlcNAc
# Procedure, shortened: as §1
# Gal6S(b1-4)GlcNAc6S = target: Gal6S(b1-4)GlcNAc6S
# Procedure, shortened: as §1
# GalNAc(a1-3)Gal = target: GalNAc(a1-3)Gal
# Procedure, shortened: as §1
# GalNAc(a1-3)GalNAc = target: GalNAc(a1-3)GalNAc
# Procedure, shortened: as §1
# [4] = target: GalNAc(a1-3)GalNAc(b1-3)Gal(a1-4)Gal(b1-4)Glc
# Procedure, shortened: as §1
# [5] = target: GalNAc(a1-3)GalNAc(b1-3)Gal(a1-4)Gal(b1-4)GlcNAc
# Procedure, shortened: as §1
# GalNAc(b1-3)Gal = target: GalNAc(b1-3)Gal
# Procedure, shortened: as §1
# [6] = target: GalNAc(b1-3)Gal(a1-4)Gal(b1-4)GlcNAc
# Procedure, shortened: as §1
# [7] = target: GalNAc(b1-3)Gal(a1-4)Gal(b1-4)GlcNAc(b1-3)Gal(b1-4)Glc
# Procedure, shortened: as §1
# [8] = target: GalNAc(b1-3)Gal(a1-6)Gal(b1-4)Glc
# Procedure, shortened: as §1
# GalNAc(b1-3)GalNAc = target: GalNAc(b1-3)GalNAc
# Procedure, shortened: as §1
# GalNAc(b1-4)Gal(b1-4)Glc = target: GalNAc(b1-4)Gal(b1-4)Glc
# Procedure, shortened: as §1
# GalNAc(b1-4)GlcNAc = target: GalNAc(b1-4)GlcNAc
# Procedure, shortened: as §1
# [9] = target: GalNAc(b1-4)GlcNAc(b1-2)Man(a1-3)[GalNAc(b1-4)GlcNAc(b1-2)Man(a1-6)]Man(b1-4)GlcNAc(b1-4)GlcNAc
# Procedure, shortened: as §1
# GalNAc(b1-6)GalNAc = target: GalNAc(b1-6)GalNAc
# Procedure, shortened: as §1
# Glc(a1-4)Glc = target: Glc(a1-4)Glc
# Procedure, shortened: as §1
# [10] = target: Glc(a1-4)Glc(a1-4)Glc(a1-4)Glc
# Procedure, shortened: as §1
# Glc(a1-6)Glc(a1-6)Glc = target: Glc(a1-6)Glc(a1-6)Glc
# Procedure, shortened: as §1
# [11] = target: Glc(a1-6)Glc(a1-6)Glc(a1-6)Glc
# Procedure, shortened: as §1
# Glc(b1-4)Glc = target: Glc(b1-4)Glc
# Procedure, shortened: as §1
# Glc(b1-6)Glc = target: Glc(b1-6)Glc
# Procedure, shortened: as §1
# GlcA(b1-3)Gal = target: GlcA(b1-3)Gal
# Procedure, shortened: as §1
# GlcA(b1-3)GlcNAc = target: GlcA(b1-3)GlcNAc
# Procedure, shortened: as §1
# GlcA(b1-6)Gal = target: GlcA(b1-6)Gal
# Procedure, shortened: as §1
# [12] = target: GlcNAc(a1-3)Gal(b1-4)GlcNAc
# Procedure, shortened: as §1
# [13] = target: GlcNAc(a1-4)Gal(b1-3)GlcNAc
# Procedure, shortened: as §1
# [14] = target: GlcNAc(a1-4)Gal(b1-4)GalNAc
# Procedure, shortened: as §1
# [15] = target: GlcNAc(a1-4)Gal(b1-4)GlcNAc
# Procedure, shortened: as §1
# [16] = target: GlcNAc(a1-4)Gal(b1-4)GlcNAc(b1-3)Gal(b1-4)Glc
# Procedure, shortened: as §1
binder,measurement,setting,value
"CV-2L (Chromobacterium violaceum), Q7NX84 (protein) MAQQGVFTLPARINFGVTVLVNSAATQHVEIFVDNEPRAAFSGVGTGDNNLGTKVINSGSGNVRVQITANGRQSDLVSSQLVLANKLNLAVVGSEDGTDMDYNDSIVILNWPLG",glycan array binding signal (z-score),[1],1.1
same,glycan array binding signal (z-score),Gal3S(b1-4)Glc,-0.342
same,glycan array binding signal (z-score),Gal3S(b1-4)Glc6S,-0.317
same,glycan array binding signal (z-score),Gal3S(b1-4)GlcNAc,-0.331
same,glycan array binding signal (z-score),Gal3S(b1-4)GlcNAc6S,-0.325
same,glycan array binding signal (z-score),[2],0.139
same,glycan array binding signal (z-score),[3],0.416
same,glycan array binding signal (z-score),Gal3S4S(b1-4)GlcNAc,-0.344
same,glycan array binding signal (z-score),Gal3S6S(b1-4)GlcNAc,-0.346
same,glycan array binding signal (z-score),Gal3S6S(b1-4)GlcNAc6S,-0.338
same,glycan array binding signal (z-score),Gal4S(b1-4)GlcNAc,-0.355
same,glycan array binding signal (z-score),Gal4S6S(b1-4)GlcNAc,-0.342
same,glycan array binding signal (z-score),Gal6S(b1-3)GlcNAc,-0.342
same,glycan array binding signal (z-score),Gal6S(b1-3)GlcNAc6S,-0.343
same,glycan array binding signal (z-score),Gal6S(b1-4)Glc,-0.346
same,glycan array binding signal (z-score),Gal6S(b1-4)Glc6S,-0.344
same,glycan array binding signal (z-score),Gal6S(b1-4)GlcNAc,-0.341
same,glycan array binding signal (z-score),Gal6S(b1-4)GlcNAc6S,-0.356
same,glycan array binding signal (z-score),GalNAc(a1-3)Gal,-0.347
same,glycan array binding signal (z-score),GalNAc(a1-3)GalNAc,-0.33
same,glycan array binding signal (z-score),[4],-0.34
same,glycan array binding signal (z-score),[5],-0.306
same,glycan array binding signal (z-score),GalNAc(b1-3)Gal,-0.331
same,glycan array binding signal (z-score),[6],-0.342
same,glycan array binding signal (z-score),[7],-0.351
same,glycan array binding signal (z-score),[8],-0.338
same,glycan array binding signal (z-score),GalNAc(b1-3)GalNAc,-0.349
same,glycan array binding signal (z-score),GalNAc(b1-4)Gal(b1-4)Glc,-0.331
same,glycan array binding signal (z-score),GalNAc(b1-4)GlcNAc,-0.337
same,glycan array binding signal (z-score),[9],-0.325
same,glycan array binding signal (z-score),GalNAc(b1-6)GalNAc,-0.323
same,glycan array binding signal (z-score),Glc(a1-4)Glc,-0.336
same,glycan array binding signal (z-score),[10],-0.34
same,glycan array binding signal (z-score),Glc(a1-6)Glc(a1-6)Glc,-0.347
same,glycan array binding signal (z-score),[11],-0.34
same,glycan array binding signal (z-score),Glc(b1-4)Glc,-0.337
same,glycan array binding signal (z-score),Glc(b1-6)Glc,-0.349
same,glycan array binding signal (z-score),GlcA(b1-3)Gal,-0.345
same,glycan array binding signal (z-score),GlcA(b1-3)GlcNAc,-0.347
same,glycan array binding signal (z-score),GlcA(b1-6)Gal,-0.347
same,glycan array binding signal (z-score),[12],-0.345
same,glycan array binding signal (z-score),[13],-0.352
same,glycan array binding signal (z-score),[14],-0.344
same,glycan array binding signal (z-score),[15],-0.332
same,glycan array binding signal (z-score),[16],-0.349
